Experimental data from PubChem BioAssay (NCATS).
Several values for one entry are separate records, joined by “and”; a condition that tells them apart may be missing. Identical values can stand only once. The list shows a part of the results. The main result of the screen is listed elsewhere. These columns were measured beside it and carry no call. The list favours compounds with an active or inconclusive main result. The note in brackets gives the kind of curve behind each potency; many fits are weak.

Experiment: qHTS Assay for Lipid Storage Modulators (AID 1519)
Conditions: Drosophila S3 cells, BODIPY lipid droplet/cell ratio, laser cytometry, cells loaded with oleic acid
How it was run: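 Cells seeded at 5,000 per well were treated with compounds over a concentration series and loaded with oleic acid (400 uM, as added). Lipid droplet fluorescence (488 nm excitation, 500-530 nm channel) was read by laser-scanning cytometry and normalized to 20 uM Triacsin C.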

[1] = measured here: cell count channel max response
[2] = measured here: cell number channel AC50
[3] = measured here: lipid (BODIPY) channel AC50
[4] = measured here: lipid channel max response
Tags tell the direction and shape of the fitted curve.

COc1cc2c(cc1OC)[C@@H]1C(=O)c3ccc(OC)c(CC=C(C)C)c3OC1CO2 (some centres undefined)
max response [1]: -30.1%
AC50 [2]: 11.2 µM [falling, partial curve]
AC50 [3]: 15.8 µM [falling, partial curve]
max response [4]: -84.7%

COc1ccc(CCN)cc1O
max response [1]: -16.1%
AC50 [2]: 7.94 µM [falling, full curve, poor fit]
AC50 [3]: 7.08 µM [falling, full curve, poor fit]
max response [4]: -20.3%

Cc1ccc2oc(-c3ccccc3)cc(=O)c2c1
max response [1]: 134%
AC50 [2]: 2.24 µM [rising, full curve]
AC50 [3]: 2.24 µM [rising, full curve]
max response [4]: 173%

C=C(C)C1Cc2c(ccc3c2OC2COc4cc(OC)c(OC)cc4C2C3=O)O1 (centres undefined)
max response [1]: -26.5%
AC50 [2]: 0.316 µM [falling, full curve, poor fit]
AC50 [3]: 0.282 µM [falling, full curve]
max response [4]: -90.6%

Clc1cncc(N2CCNCC2)n1
max response [1]: 45.5%
AC50 [2]: 15.8 µM [rising, partial curve, poor fit]
AC50 [3]: 14.1 µM [rising, partial curve, poor fit]
max response [4]: 56.9%

S=C(NC1CCCCC1)N1CCC(c2cnc[nH]2)CC1
max response [1]: 121%
AC50 [2]: 3.98 µM [rising, partial curve]
AC50 [3]: 3.98 µM [rising, partial curve, poor fit]
max response [4]: 156%

COc1cc2c(cc1O)CC1c3c(cc(O)c(OC)c3-2)CCN1C (centres undefined)
max response [1]: 91.3%
AC50 [2]: 15.8 µM [rising, partial curve]
AC50 [3]: 25.1 µM [rising, partial curve]
max response [4]: 123%

C[C@H](N)Cc1c[nH]c2ccc(OCc3cccs3)cc12
max response [1]: 92.8%
AC50 [2]: 28.2 µM [rising, partial curve, poor fit]
AC50 [3]: 25.1 µM [rising, partial curve]
max response [4]: 121%

Clc1ccc(C2=CCC[C@H]3CC[C@@H]2N3)cn1
max response [1]: 42.7%
AC50 [2]: 3.55 µM [rising, full curve, poor fit]
AC50 [3]: 3.16 µM [rising, full curve, poor fit]
max response [4]: 51.8%

CN(C)Cc1c[nH]c2ccccc12
max response [1]: 65.6%
AC50 [2]: 2.24 µM [rising, full curve, poor fit]
AC50 [3]: 3.55 µM [rising, full curve, poor fit]
max response [4]: 89.2%

CCCCCC1C(=O)O[C@H](C)[C@@H](NC(=O)c2cccc(NC=O)c2O)C(=O)OC(C)C1OC(=O)CC(C)C (some centres undefined)
max response [1]: -38%
AC50 [2]: 0.398 µM [falling, full curve]
AC50 [3]: 0.141 µM [falling, full curve]
max response [4]: -106%

COc1cc(CNC(=O)CCCC/C=C\C(C)C)ccc1O
max response [1]: 67.7% and 73.3%
AC50 [2]: 7.08 µM [rising, partial curve, poor fit] and 28.2 µM [rising, partial curve, poor fit]
AC50 [3]: 6.31 µM [rising, full curve, poor fit] and 28.2 µM [rising, partial curve, poor fit]
max response [4]: 68.8% and 75.4%

COc1ccc(C2Oc3c(I)c(OC)cc(OC)c3CC2O)cc1OC (centres undefined)
max response [1]: 41.3%
AC50 [2]: 1.12 µM [rising, partial curve, poor fit]
AC50 [3]: 6.31 µM [rising, partial curve, poor fit]
max response [4]: 55.2%

C[C@H]1O[C@@H](O[C@H]2[C@@H](O)C[C@H](O[C@H]3[C@@H](O)C[C@H](O[C@H]4CC[C@]5(C)C6CC[C@]7(C)[C@@H](C8=CC(=O)OC8)CC[C@]7(O)C6CC[C@@H]5C4)O[C@@H]3C)O[C@@H]2C)C[C@H](O)[C@@H]1O (some centres undefined)
max response [1]: 33.7%
AC50 [2]: 6.31 µM [rising, partial curve, poor fit]
AC50 [3]: 4.47 µM [rising, partial curve, poor fit]
max response [4]: 38.4%

O=CN1CCCCC1C1CC[C@H]2CCCCN2C1 (some centres undefined)
max response [1]: 49.1%
AC50 [2]: 35.5 µM [rising, single point]
AC50 [3]: 35.5 µM [rising, single point]
max response [4]: 61.7%

O=c1cc(-c2ccc(O)c(O)c2)oc2cc(O)cc(O)c12
max response [1]: -43.5% and 59.6%
AC50 [2]: 22.4 µM [falling, single point] and 14.1 µM [rising, partial curve, poor fit]
AC50 [3]: 20 µM [falling, single point] and 44.7 µM [falling, single point]
max response [4]: -60.3% and -43.2%

CC1(C)S[C@H]2[C@@H](N)C(=O)N2[C@H]1C(=O)O
max response [1]: 46%
AC50 [2]: 39.8 µM [rising, single point]
AC50 [3]: 39.8 µM [rising, single point]
max response [4]: 58.5%

COc1ccc2[nH]cc(CCN(C)C)c2c1
max response [1]: -3.03%
AC50 [2]: 7.94 µM [falling, full curve, poor fit]
AC50 [3]: 7.94 µM [falling, full curve, poor fit]
max response [4]: -1.31%

C[C@@H]1O[C@H](O[C@@H]2C[C@@H](O)[C@]3(CO)[C@H]4[C@H](O)C[C@]5(C)[C@@H](C6=CC(=O)OC6)CC[C@@]5(O)[C@@H]4CC[C@]3(O)C2)[C@@H](O)[C@H](O)[C@H]1O
max response [1]: 3.46%
AC50 [2]: 12.6 µM [rising, partial curve, poor fit]
AC50 [3]: 12.6 µM [rising, partial curve, poor fit]
max response [4]: 7.78%

Oc1ccc2c3c1O[C@H]1c4[nH]c5ccccc5c4C[C@]4(O)[C@H](C2)N(CC2CC2)CC[C@@]314
max response [1]: 32.1%
AC50 [2]: 6.31 µM [rising, full curve, poor fit]
AC50 [3]: 4.47 µM [rising, full curve, poor fit]
max response [4]: 31%

O=C(O)C1=CCCN(CCOC(c2ccc(C(F)(F)F)cc2)c2ccc(C(F)(F)F)cc2)C1
max response [1]: 41.6%
AC50 [2]: 35.5 µM [rising, partial curve, poor fit]
AC50 [3]: 31.6 µM [rising, single point]
max response [4]: 44.6%

CNC(=O)Oc1ccc2c(c1)[C@@]1(C)CCN(C)[C@@H]1N2C
max response [1]: 34.1%
AC50 [2]: 31.6 µM [rising, single point]
AC50 [3]: 31.6 µM [rising, single point]
max response [4]: 46.4%

Cc1nnc2ccc(-c3cccc(C(F)(F)F)c3)nn12
max response [1]: 117%
AC50 [2]: 1.41 µM [rising, full curve]
AC50 [3]: 1.26 µM [rising, full curve]
max response [4]: 156%

O[C@@H](Cc1ccncc1)C(Cl)(Cl)Cl
max response [1]: 97.9%
AC50 [2]: 31.6 µM [rising, partial curve, poor fit]
AC50 [3]: 31.6 µM [rising, partial curve, poor fit]
max response [4]: 122%

O=C(Oc1ccccc1)N1CCC2(CCN(Cc3ccncc3)CC2)CC1
max response [1]: 30.9%
AC50 [2]: 0.562 µM [rising, partial curve, poor fit]
AC50 [3]: 1.26 µM [rising, full curve, poor fit]
max response [4]: 45.8%

CC1=CC(=O)C2=C(C)C[C@H](O)[C@H]3[C@H](C)C(=O)O[C@@H]3C12 (some centres undefined)
max response [1]: 78.5%
AC50 [2]: 28.2 µM [rising, partial curve, poor fit]
AC50 [3]: 14.1 µM [rising, partial curve, poor fit]
max response [4]: 95.5%

CC1=CC(=O)c2c(O)cccc2C1=O
max response [1]: -107% and 5.04%
AC50 [2]: 28.2 µM [falling, partial curve] and 14.1 µM [rising, partial curve, poor fit]
AC50 [3]: 8.91 µM [falling, partial curve] and 39.8 µM [falling, single point]
max response [4]: -97.7% and -60.5%

NC(C(=O)O)c1cc(=O)[nH]o1 (centres undefined)
max response [1]: 45.2%
AC50 [2]: 39.8 µM [rising, single point]
AC50 [3]: 39.8 µM [rising, single point]
max response [4]: 44.9%

COc1ccc(CC2NCC(O)C2OC(C)=O)cc1 (centres undefined)
max response [1]: 39.4%
AC50 [2]: 0.501 µM [rising, full curve]
AC50 [3]: 0.398 µM [rising, full curve, poor fit]
max response [4]: -6.61%

C[C@@H](N)Cn1ccc2cc(F)c(Cl)cc21
max response [1]: 80.8%
AC50 [2]: 4.47 µM [rising, full curve, poor fit]
AC50 [3]: 3.98 µM [rising, full curve, poor fit]
max response [4]: 105%

Nc1ncnc2c1ncn2[C@@H]1O[C@H](COP(=O)(O)CP(=O)(O)OP(=O)(O)O)[C@H](O)[C@H]1O
max response [1]: -68.4%
AC50 [2]: 22.4 µM [falling, partial curve]
AC50 [3]: 22.4 µM [falling, partial curve]
max response [4]: -71.2%

CC(Cc1ccc(OCC(=O)O)cc1)NCC(O)c1cccc(Cl)c1 (centres undefined)
max response [1]: 55.5%
AC50 [2]: 39.8 µM [rising, single point]
AC50 [3]: 39.8 µM [rising, single point]
max response [4]: 55.5%

O=C1CCc2c(ccc3ccccc23)O1
max response [1]: 62.6%
AC50 [2]: 17.8 µM [rising, full curve, poor fit]
AC50 [3]: 17.8 µM [rising, full curve]
max response [4]: 73.6%

CCCN1CCCC(c2cccc(O)c2)C1 (centres undefined)
max response [1]: -1.74%
AC50 [2]: 1.26 µM [falling, full curve, poor fit]
AC50 [3]: 1.41 µM [falling, full curve, poor fit]
max response [4]: -1.08%

CN1CCc2cc3c(cc2C1C1OC(=O)c2c1ccc1c2OCO1)OCO3 (centres undefined)
max response [1]: 66.3%
AC50 [2]: 12.6 µM [rising, partial curve]
AC50 [3]: 14.1 µM [rising, partial curve]
max response [4]: 85%

COc1c2ccoc2cc2oc(=O)ccc12
max response [1]: 15.4% and 117%
AC50 [2]: 1.26 µM [rising, full curve]
AC50 [3]: 22.4 µM [rising, partial curve, poor fit] and 1.12 µM [rising, full curve]
max response [4]: 37.1% and 156%
